± gives the standard deviation of the averaged measurements. The list shows a part of the results.
Each sequence was assayed on PfAP2-EXP AP2 domain (GST-tagged) (assay: gcPBM binding intensity (ln(normalized median fluorescence intensity)); higher = stronger DNA binding).
How it was run: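 The binding buffer was 1× PBS containing 1% milk, 0.2 mg/ml BSA, 0.5% salmon testes DNA and 0.03% Triton X-100. In it, GST-tagged P. falciparum DNA-binding domains expressed in E. coli were applied for 1 h to an Agilent 4 × 180k array of primer-extended double-stranded 36-bp intergenic genomic probes plus negative controls. Binding intensity, read with Alexa488 anti-GST antibody and a 488 nm scan, is the highest Masliner-normalised natural-log median intensity across replicate spots of either probe orientation.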

Point of comparison: “TTTATTGAACGTACACATATATATATGTATATATTT [TGCATGCA_negctrl_site141]”, “gcPBM binding intensity (ln)” value 8.68 ± 0.15. Against it:
- ATTTTTAATCATTTACAACCTAGTGATTATACAAAT [CACACA_negctrl_site1089] — within error, 8.51 ± 0.35
- ATATAATAATTGTACACATGCACACACAAATATTAT [TGCATGCA_site204] — within error, 8.9 ± 0.29
- TATATTTATGTATATGTGCACATAAATTTAAGAATG [GTGCAC_site9512] — within error, 8.845 ± 0.078
- ATAGCCAAAAATCATGCACACCTAAAAAAAAAAAAA [CACACA_site8826] — within error, 8.27 ± 0.41
- GTATATATATTTGTACGTACATATTGTTGTAAACAC [XGTACX_site8833] — within error, 8.97 ± 0.23
- TTTTTTATTGTGATACGTATATTATTTTATGATTAA [GTGCAC_negctrl_site202] — within error, 8.74 ± 0.4
- AAGAGAGACATCAACACACATACGTATGTATAGAAA [CACACA_site1397] — within error, 8.56 ± 0.71
- TTCATTTTAATAATATGTACATAATATATTTAAAAA [XGTACX_site634] — within error, 8.53 ± 0.25
- AAAAACTTAATATTCACACATATATATATATATATA [CACACA_site5240] — higher, 10.2 ± 0.45
- TATTTCCATTCATAATTTTGTAGAATATATAACCGT [CACACA_negctrl_site1531] — within error, 8.4 ± 0.47
- CGTATATATATATACACACACATATATATATGTAAA [CACACA_site195] — within error, 8.75 ± 0.38
- AAAAAAAAAAATTACACACATACATATAATAATAAT [CACACA_site2193] — within error, 8.48 ± 0.38
- ATATATATAAAATATACACACATACTGTTCATTTAA [CACACA_site6149] — within error, 8.46 ± 0.22
- TTTACAAAAAATTATACACACACGTACATATAAATA [CACACA_site945] — within error, 8.55 ± 0.23
- TTTTATTATTAATTTCTTTTTTCTCATCACTTTCAA [XGTACX_negctrl_site117] — within error, 8.56 ± 0.61
- TAATTTATGAGTAATACACACACTTGTGGATATATT [CACACA_site3790] — within error, 8.28 ± 0.45
- AAATATTATTTATTTACACACCAATCTTCTTTTCTT [CACACA_site3990] — within error, 8.4 ± 0.3
- GAAAAATTTTTATATGTGCACATGTTATATATAATT [GTGCAC_site9742] — within error, 9.07 ± 0.33
- TACGTTCTAATATATACACACCTGGTATTAATTATG [CACACA_site5260] — within error, 8.69 ± 0.33
- AGGCACACAAACATATGTACACATATATATATATAT [XGTACX_site4723] — higher, 9.98 ± 0.38
- TTTTGTTTTAATTTTATTTGATTTTATTTGATTTAT [CACACA_negctrl_site692] — within error, 8.48 ± 0.52
- ATATTTATATGGTTTGCACACATAACAACTATGGTT [CACACA_site3631] — within error, 8.72 ± 0.38
- ATATAACATATCAATTGTACGTATTGATAATATATA [XGTACX_site2504] — within error, 8.44 ± 0.3
- TTATTTTTTTTATATATATGTATAAATATATATATA [XGTACX_negctrl_site441] — higher, 9.16 ± 0.28
- AAAAAAAAAAATCCAGTGCATATATTTTTTACATAT — within error, 8.53 ± 0.042
- ATTACATTAATAAGAGTGCATTATATAAGTTTTATG — within error, 8.43 ± 0.13
- GACAAAATGATAGGGACACACAATATCAATGTTTAA [CACACA_site765] — within error, 8.38 ± 0.45
- TCAATCATCTTATATAGTACACATAAAAGTATTATA [XGTACX_site8513] — within error, 8.41 ± 0.31
- CCACTAATAAATATTACACACATATAGATTTATATT [CACACA_site7465] — within error, 8.41 ± 0.44
- CAAAAGGATATGCACACACACACACGGATATTTATA [CACACA_site7099] — within error, 8.64 ± 0.45
- TTTTGTTATTAGAGGGTGCTTATAATGAACTCCTAC — within error, 8.65 ± 0.19
- AAACATATATACATATGTACATATATACATATATGT [XGTACX_site5779] — within error, 8.4 ± 0.26
- TATAAACCTTTTTGCACGCACACAAAAAAAAAATAA [CACACA_site168] — within error, 8.61 ± 0.24
- GATTAACAACATATTAGTACATATATTATATATATA [XGTACX_site7646] — within error, 8.98 ± 0.2
- GACTATAATGTTTTGGTGCGTCATGTTATGGTCATC — within error, 8.62 ± 0.35
- TTCGGAAAAATTAAAGCACACAAAAAAAAATAAAAA [CACACA_site8296] — within error, 8.62 ± 0.41
- CACCCCCACAGACACACACACACACCGATATATATA [CACACA_site8010] — higher, 9.49 ± 0.49
- TATAATTTAACGACATGTACATATAAAAAAATATTT [XGTACX_site2395] — within error, 8.89 ± 0.42
- CATATTTTATTATATACATGCAATTTTAATATATAT [TGCATGCA_site544] — within error, 8.59 ± 0.25
- TTATTTATATTTTTTTGTACACATATTGTATACATA [XGTACX_site1178] — within error, 8.78 ± 0.41
- TGTAGATTTTGTAACACACACATATAAATACCTATA [CACACA_site7183] — within error, 8.6 ± 0.49
- ATACACATTCTTCCGACATAATAAGAAAAAGAAAAA [CACACA_negctrl_site9] — within error, 8.46 ± 0.49
- AAAATGTATTCTCTCATGCACACTTTCTTTAAGGGA [CACACA_site2196] — within error, 8.42 ± 0.28
- ATCTCTTATATATTCACACACATATATATAATTATA [CACACA_site1502] — within error, 8.85 ± 0.42

— the supplement of paper PMC11417369
